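The compound was tested at five concentrations on cells cultured in 96-well plates, with a 48-hour exposure period. GI50: concentration for 50% inhibition of growth. Definition used: TGI = concentration required for complete inhibition of growth.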
Test system: NCI-H322M lung
Assay: NCI-60 cell line screen, 48 h

| SMILES | GI50 | TGI |
| --- | --- | --- |
| Cc1cc(C)cc(Oc2cccc(-c3c(C)nnn3C3CCN(CCN(C)C)CC3)n2)c1 | 4.22 µM | 21.4 µM |
| COc1cccc2nc(Nc3ccc(F)c(NC(=O)c4ccc(CN5CCN(C)CC5)c(C(F)(F)F)c4)c3)ccc12 | 15.2 µM | 28.8 µM |
| N#Cc1ccc(/C=N/NC(=O)c2[nH]c3ccc(Br)cc3c2-c2ccccc2)o1 | 0.708 µM | 18.8 µM |
| O=C(CSc1nc2ccccc2c(=O)n1-c1ccc(Cl)cc1)Nc1ccc(-c2nc3ccc([N+](=O)[O-])cc3[nH]2)cc1 | 3.14 µM | 24.5 µM |
| O=C(c1ccc(O)cc1)C1[C@H](c2ccc(Cl)cc2)[C@@H](c2ccccc2)NC12C(=O)Nc1ccccc12 (some centres undefined) | 6.04 µM | 11.7 µM |
| O=c1oc2ccc(-c3ccc(F)cc3F)cc2c(=O)n1-c1ccc(F)cc1 | 2.78 µM | 14.1 µM |
| N#Cc1c(-c2ccccc2Cl)cc(-c2ccc3ccccc3c2)[nH]c1=O | 26.7 µM | > 100 µM |
